Each structure is given as a SMILES string. Where only a bound is given, the exact number is not on record here.

From patent US11925638B2, “Pharmaceutical composition comprising diamino heterocyclic carboxamide compound as active ingredient” (ASTELLAS PHARMA INC., priority 2014, dated 2024) come the findings set out here.

This assay has as its system PC9 cells stably expressing AXL (PC9/AXL, AXL/PC9).

As to `C#Cc1cccc(Nc2ncnc3cc(OCCOC)c(OCCOC)cc23)c1` [erlotinib], the inhibition of proliferation (4 days, erlotinib alone up to 3000 nM) was under 50%. Besides, the “survival rate of the cells” value (erlotinib alone at maximum concentration of 3000 nM) was 73%.
